The values that follow come from PubChem BioAssay AID463173 (ICCB-Longwood Screening Facility, Harvard Medical School, 2010).

Structures are written as SMILES. The campaign covered roughly 52,000 compounds. About 1,700 (3.3%) were called active. Rule as the data show it: active = survival mostly below about 52% (no sharp cut-off); inactive = mostly above about 56%. Some of the results follow.

The subject of the test is Wild type. Kind of test: growth inhibition of S. aureus wild type versus tarO mutant, primary screen, teichoic acid synthesis inhibitors, RN4220, OD600 (AID 463173). Particulars: S. aureus RN4220 wild type/DeltatarO growth, OD600, 18 h, active compounds read low, screened at 18.75 µg/mL (by protocol).
With `O=C(C1CCC(Cn2c(=O)c3sccc3n(Cc3ccccc3)c2=O)CC1)N1CCCCC1` (stereo unspecified), the survival is inactive: 73%.
As for `N#CSc1ccc(N2CCCCC2)cc1`, the figure is inactive: 109%; as for `Cc1ccc(C)c(N2CCN(C(=O)CCNS(=O)(=O)c3ccc4c(c3)CCN4C(=O)C3CC3)CC2)c1`, inactive: 71%.
The value for `Cc1ccc2cccc(NC(=O)c3cccc4c(Cl)cccc34)c2n1` was inactive: 69%.
As for `CCOc1ccc(NC(=O)CCc2nc3cccnc3n2-c2ccccc2)cc1`, the figure is inactive: 102%; as for `COC(=O)c1cc2c(ccn2-c2ccc(F)cc2)n1CC(=O)c1ccc(OC)cc1`, inactive: 111%.
With `CC1CCN(c2nc3nonc3nc2Nc2ccc(F)cc2)CC1`, the survival was inactive: 103%.
`COc1ccc(S(=O)(=O)NCCS(=O)(=O)N2CCN(c3ccccc3)CC2)cc1OC`: the survival is inactive: 93%.
Take `Cc1ccc(NC(=O)c2oc3ccccc3c2NC(=O)c2ccc(F)c(F)c2)cc1`: the survival was inactive: 83%.
The value for `COc1ccc(NC(=O)c2oc3ccccc3c2NC(=O)C23CC4CC(CC(C4)C2)C3)c(OC)c1` was inactive: 58%; that for `COc1ccc2c(c1)c(CC(=O)Nc1ccc(C(C)=O)cc1)c(C)n2C(=O)c1ccc(Cl)cc1` was inactive: 71%; that for `CCOC(=O)CSc1nnc(-c2ccc(S(=O)(=O)NCc3cccs3)cc2)o1` was inactive: 107%.
As for `O=C(Nc1nc2ccc(Cl)cc2s1)c1cc(=O)c2ccccc2o1`, the figure is inactive: 61%.
`CCc1cccc(CC)c1NC(=O)C(Cc1ccccc1)NS(=O)(=O)c1cccc2nsnc12` (stereo unspecified): the survival was inactive: 74%.
The value for `CCc1ccc(NC(=O)CSc2nc3c(oc4ccccc43)c(=O)n2-c2cccc(C)c2)cc1` was inactive: 90%.
For the compound `O=c1[nH]c2ccccc2nc1/C=C(\O)c1ccccc1`, the survival is inactive: 116%.
Take `CCc1cnc2c(c1SCc1ccccc1C)c(=O)n(C)c(=O)n2C`: the survival is inactive: 65%.
The value for `Cc1ccc(CNC(=O)CCCCCn2c(=O)c3sccc3n(CC(=O)Nc3ccc(C)c(F)c3)c2=O)cc1` was inactive: 134%.
The value for `CC(C)CN(CCCNC(=O)c1cc(=O)[nH]c2ccc(S(=O)(=O)N3CCCC3)cc12)CC(C)C` was inactive: 136%; that for `CCN1C(C(=O)c2ccccc2)=C(OC(=O)COc2ccc(OC)cc2)c2ccccc2S1(=O)=O` was inactive: 78%; that for `CCOC(=O)C1CCN(CN2C(=O)CCC2=O)CC1` was inactive: 99%.
The value for `CN1CCc2c(sc(NC(=O)CSc3ccc(F)cc3)c2-c2nc3ccccc3s2)C1` was inactive: 124%; that for `COc1cccc(C(=O)NC(=NCCc2c[nH]c3ccc(OC)cc23)Nc2nc(C)cc(C)n2)c1` was inactive: 83%.
As to `Cc1ccc(Nc2sc(C(=O)c3ccccc3)c(N)c2C(=O)Nc2ccc(Cl)cc2)cc1`, the survival is inactive: 47%.
`COc1cc2c(cc1OC)n(CC(=O)c1cccc(Cl)c1)c(=O)n1nc(CCn3nc(C)cc3C)nc21`: the survival is inactive: 74%.
As for `CCOCCCNC(=O)c1cc(Sc2cccc(Cl)c2)nc2ccccc12`, the figure is inactive: 71%.
As for `O=C(CCN1C(=O)c2ccccc2Sc2ncccc21)Nc1ccc(F)cc1F`, the figure is inactive: 56%; as for `COc1ccc(C2NC(=O)NC(C)=C2C(=O)Nc2ccccc2)cc1OC` (stereo unspecified), inactive: 90%; as for `COc1cccc(C(=O)N2c3ccc(C)cc3C(C)(c3ccccc3)CC2(C)C)c1` (stereo unspecified), active: -2%.
As for `Cc1ccccc1C(=O)Nc1sc2c(c1C(=O)N1CCCCC1)CCC(C)C2` (stereo unspecified), the figure is inactive: 36%; as for `O=C(NCc1cccnc1)C(=O)NCC(c1cccnc1)N1CCN(c2ccc(F)cc2)CC1` (stereo unspecified), inactive: 95%.
As for `Cc1ccccc1C(=O)N/N=C1/SCC(=O)N1Cc1ccc2c(c1)OCO2`, the survival is inactive: 107%.
For `Cc1ccc(CC(=O)Nc2ccc3c(c2)N(C)C(=O)c2ccccc2S3)cc1`, the survival is inactive: 128%.
The value for `COC(=O)c1ccc2c(c1)N(CC(=O)Nc1ccc(OC)c(Cl)c1)C(=O)c1ccccc1S2` was inactive: 54%; that for `Cc1ccc(-n2nc3c(N4CCCC(C(=O)NCc5ccc(Cl)cc5)C4)nnc(C)c3c2C)cc1` (stereo unspecified) was inactive: 72%; that for `Cc1ccc(-c2nn3c(=O)cc(CN4CCN(C(=O)/C=C/c5ccccc5)CC4)nc3s2)cc1` was inactive: 86%.
Regarding `CCOC(=O)c1ccc(NC(=O)C(Cc2ccccc2)N2Cc3ccccc3C2=O)cc1` (stereo unspecified), the survival was inactive: 73%.
Take `CCCOc1ccc(C(=O)Nc2ccc3oc(-c4cccc(Cl)c4Cl)nc3c2)cc1`: the survival is inactive: 84%.
As for `CCc1ccc(-c2cn3c(n2)sc2cc(C(=O)NCCC4=CCCCC4)ccc23)cc1`, the figure is inactive: 82%; as for `CCOC(=O)c1ccc(NC(=O)CSc2cn(CC(=O)N3CCCC3)c3ccccc23)cc1`, inactive: 89%; as for `Nc1nc2c(ccc3[nH]c(=O)c(=O)[nH]c32)s1`, inactive: 102%.
In the case of `CC(C)c1ccc(NC(=O)Cn2cc(S(=O)(=O)Cc3cccc(Cl)c3)c3ccccc32)cc1`, the survival was inactive: 81%.
As to `O=C(CCS(=O)(=O)c1nc(-c2cccs2)cc(C(F)(F)F)n1)Nc1cc(Br)ccc1O`, the survival is inactive: 20%.
The value for `Cc1ccc(NC(=O)Cn2c(=O)n(Cc3nc(C)no3)c(=O)c3cc4c(cc32)OCO4)c(C)c1` was inactive: 75%; that for `CCOc1ccccc1C(=O)N(Cc1cc(OC)c(OC)c(OC)c1)c1ccccn1` was inactive: 82%; that for `CCCn1c(SCc2nc(-c3ccccc3OCC)no2)nnc1-c1ccc(Cl)cc1` was inactive: 78%.
Regarding `COC(=O)CSc1nnc(-c2ccco2)n1Cc1ccco1`, the survival is inactive: 98%.
As for `CC(C)c1ccc(NC(=O)CSc2nc(=O)n(Cc3ccccn3)c3c2CCC3)cc1`, the figure is inactive: 136%.
Turning to `N#Cc1nc(COc2cccc(Cl)c2)oc1NCCc1ccccc1`, the survival was inactive: 19%.
On to `Cc1ccc(CCNC(=O)c2ccc3c(c2)nc2n3CCCCC2)cc1`, for which the survival is inactive: 135%.
Regarding `COC(=O)CNC(=O)C1CCN(S(=O)(=O)c2cccc3nsnc23)CC1`, the survival is inactive: 89%.
The value for `Cc1ccc(C(=O)c2c(N)c(C(=O)Nc3ccccc3Cl)c3ccccn23)cc1` was inactive: 96%; that for `CCOc1ccc(OCC(=O)NCCS(=O)(=O)N2CCN(c3ccccc3F)CC2)cc1` was inactive: 74%; that for `Cc1sc2ncn(CC(=O)Nc3cccc(C(F)(F)F)c3)c(=O)c2c1S(=O)(=O)N1CCN(C)CC1` was inactive: 75%.
As for `COc1ccc(S(=O)(=O)Nc2ccc(-c3ccc(N4CCCC4)nn3)cc2)cc1F`, the figure is inactive: 75%; as for `COc1cccc(C(=O)CN2C3=NCCN3c3ccccc32)c1`, inactive: 108%; as for `CN(c1ccc(F)cc1)S(=O)(=O)N1CCCC(C(=O)NCc2cccc(Br)c2)C1` (stereo unspecified), inactive: 85%.
For the compound `Cc1ccccc1Cc1c(C)nc2nc(SCC(=O)N(C)c3ccccc3)nn2c1C`, the survival was inactive: 70%.
For `Cc1c(C(=O)N2CCC(C)CC2)c(S(=O)(=O)NCc2ccc(Cl)cc2)c(C)n1C`, the survival was inactive: 133%.
As for `C=CCN(CC=C)C(=O)COc1ccc(Cl)cc1Cl`, the figure is inactive: 102%; as for `CC1=C(C(=O)Nc2ccc(C)cc2C)C(c2ccc([N+](=O)[O-])cc2)n2ncc(C(=O)Nc3ccc(F)cc3)c2N1` (stereo unspecified), inactive: 75%.
Consider `Cc1ccc(-n2c(=O)c3c(cnn3C)n(CC(=O)Nc3ccc(C)cc3C)c2=O)cc1`, for which the survival is inactive: 71%.
Consider `CC1(C)N([O-])C2=C(CCCC2)[N+]1=O`, for which the survival was inactive: 95%.
For the compound `CC(=O)c1ccc(N2CCN(C(=O)CCC(=O)Nc3ccc4nc(N5CCCCC5)cc(C)c4c3)CC2)cc1`, the survival was inactive: 83%.
As for `CCN(CC)c1ccc2cc(-c3nc(-c4cccs4)no3)c(=O)oc2c1`, the figure is inactive: 98%; as for `CCCCN1C(=O)c2[nH]nc(-c3ccccc3O)c2C1c1ccc(OCc2ccccc2)cc1` (stereo unspecified), inactive: 69%; as for `COc1ccc(S(=O)(=O)NCCc2csc3nc(-c4cccc(C)c4)nn23)cc1F`, inactive: 67%.
Turning to `CC1CCN(S(=O)(=O)c2ccc3c(c2)c(=O)c(C(=O)NCCc2ccccc2)cn3C)CC1`, the survival was inactive: 86%.
As for `COc1ccccc1CNC(=O)c1c(O)nc2c(C)cccn2c1=O`, the figure is inactive: 71%; as for `COc1ccccc1NC(=O)CSc1nnc(NC(=O)Nc2ccc(C)cc2)s1`, inactive: 49%; as for `Cc1ccc(S(=O)(=O)N2CCCc3cc(NS(=O)(=O)c4cccc(Cl)c4)ccc32)cc1`, inactive: 54%.
On to `CN(C)CCNC(=O)c1ccc2c(c1)NC(=O)C(CS(=O)(=O)Cc1cccc(Br)c1)N2` (stereo unspecified), for which the survival is inactive: 120%.
As for `CC(=O)c1ccc(NC(=O)CSc2nnc3ccc(-c4ccc(Br)cc4)nn23)cc1`, the figure is inactive: 65%.
As for `COc1ccc2c(c1)cc1c(=O)n(CC(=O)NC(C)C)nc(C)n12`, the figure is inactive: 78%; as for `Cn1c(CS(=O)(=O)c2ccc(Cl)cc2)c(C#N)c2ccccc21`, inactive: 103%; as for `CCc1ccc(NC(=O)C2CCCN2S(=O)(=O)c2ccc3c(c2)n(C)c(=O)c(=O)n3C)cc1` (stereo unspecified), inactive: 72%.
The value for `COc1ccccc1CNC(=O)CN(C)c1nn2c(=O)cc(C)nc2s1` was inactive: 90%.
Regarding `COc1cc(CN2CCN(C(=O)c3cccc4ccccc34)CC2)cc(OC)c1OC`, the survival was inactive: 106%.
On to `COc1ccccc1NC(=O)CCC(=O)N1CC(C)Oc2ccc(C)cc21` (stereo unspecified), for which the survival is inactive: 85%.
As for `Cc1cc(=O)c2cc(C(=O)Nc3ccc(C)c(C)c3)ccc2[nH]1`, the figure is inactive: 87%.
`Oc1ccc(CNc2ccccc2C(F)(F)F)c2cccnc12`: the survival is inactive: 49%.
As for `Cc1ccc(CNC(=O)C2CCN(S(=O)(=O)c3cccc4nonc34)CC2)cc1`, the figure is inactive: 85%.
Take `COc1ccccc1NC(=O)CSc1nnc(NC(=O)NC2CCCCC2)s1`: the survival was inactive: 84%.
As for `Cc1nn(-c2ccccc2)c2c1cc1c(=O)[nH]c(=O)nc-1n2-c1cccc(Cl)c1`, the figure is inactive: 73%.
The value for `COc1ccccc1/C=C/c1nc(C#N)c(N2CCN(C)CC2)o1` was inactive: 98%; that for `O=C(Nc1ccccc1)NC1CCN(CCCN2C(=O)c3ccccc3C2=O)CC1` was inactive: 122%.
